Several values for one entry are separate records, joined by “and”; a condition that tells them apart may be missing. Equal entries are not always repeated. The whole screen tested about 230,000 compounds, of which about 1,500 (0.65%) were called active. The inconclusive results got no clear call from the source; some entries with a clear call stand among them for comparison. Calls follow the shape of the dose curve; as a rule, active = well fitted inhibition curve with a large enough effect; inconclusive = small, poorly fitted or top-dose-only effect; inactive = no such curve, though single readings can be large or run the other way. Potencies beside an inconclusive call are fits to weak or partial responses and may not hold up.
Molecular target: Lethal(3)malignant brain tumor-like protein 1 (Homo sapiens) (UniProt Q9Y468)
Chain of UniProt Q9Y468 (Q9Y468 whole entry, looked up): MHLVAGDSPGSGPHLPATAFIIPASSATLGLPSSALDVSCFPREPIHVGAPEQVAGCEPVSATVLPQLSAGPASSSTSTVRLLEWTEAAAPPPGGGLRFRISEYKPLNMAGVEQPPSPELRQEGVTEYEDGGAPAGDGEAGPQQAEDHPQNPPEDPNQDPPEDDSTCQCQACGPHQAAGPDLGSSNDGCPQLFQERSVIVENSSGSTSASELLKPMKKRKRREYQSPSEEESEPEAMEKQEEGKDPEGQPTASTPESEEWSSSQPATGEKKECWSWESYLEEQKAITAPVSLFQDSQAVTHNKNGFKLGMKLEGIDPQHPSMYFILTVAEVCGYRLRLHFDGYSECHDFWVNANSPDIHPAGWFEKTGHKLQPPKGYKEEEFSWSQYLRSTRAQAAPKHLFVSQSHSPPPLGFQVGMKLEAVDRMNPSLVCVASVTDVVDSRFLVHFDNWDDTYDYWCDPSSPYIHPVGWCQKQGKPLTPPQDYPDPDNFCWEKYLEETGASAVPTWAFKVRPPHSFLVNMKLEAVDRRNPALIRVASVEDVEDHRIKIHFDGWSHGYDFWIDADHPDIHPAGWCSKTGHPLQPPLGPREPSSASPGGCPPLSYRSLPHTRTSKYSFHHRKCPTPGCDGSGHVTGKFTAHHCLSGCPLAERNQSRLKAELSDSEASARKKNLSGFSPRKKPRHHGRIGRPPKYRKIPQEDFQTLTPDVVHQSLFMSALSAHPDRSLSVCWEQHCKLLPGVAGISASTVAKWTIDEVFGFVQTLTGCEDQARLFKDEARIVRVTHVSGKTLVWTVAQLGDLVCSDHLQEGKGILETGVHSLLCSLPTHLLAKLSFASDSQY
Assay: qHTS Assay for the Inhibitors of L3MBTL1; also: nearly all actives have a fitted effect of over 60% in size
Conditions: AlphaScreen L3MBTL1–H3K9me1 peptide binding; activity, negative = inhibition: at 57.1 µM (top of the series)
Method in brief: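 Read-out is AlphaScreen signal from streptavidin donor and nickel chelate acceptor beads (10 ug/mL final each) bridging L3MBTL1 (50 nM) and biotinylated K9-monomethylated H3(1-15) peptide (75 nM), after 30 min compound exposure at room temperature.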
% is scaled to controls: 0 for no effect and ±100 for the full control effect; potency is read from the fitted curve at half-maximal effect; tags tell the direction and shape of the fitted curve.

Row | Structure (SMILES) | Potency | activity, negative = inhibition
1 | Cc1cc(C=O)c(C)n1-c1cccc(C(=O)O)c1 | active: 25.1 µM | 
2 | N/C(=N\OC(=O)Cc1ccccc1[N+](=O)[O-])c1ccc(Br)cc1 | inconclusive: 31.6 µM [inhibitor, single point] | 
3 | Oc1c(C(Nc2cccc(C(F)(F)F)c2)c2ccncc2)ccc2cccnc12 (configuration not stated) | active: 22.4 µM | 
4 | O=C(c1ccc(=O)[nH]n1)N1CCN(S(=O)(=O)c2ccc3ccccc3c2)CC1 | inconclusive: 0.141 µM [inhibitor, full curve, poor fit] | 
5 | Cc1cc(=O)n2[nH]c(C)c(-c3ccccc3)c2n1 |  | inactive: -0.662%
6 | COc1ccc(C(=O)COC(=O)Cn2c(C)csc2=O)c(OC)c1 | inconclusive: 39.8 µM [inhibitor, single point] | 
7 | CC(NC(=O)NC12CC3CC(CC(C3)C1)C2)C1CCCO1 (configuration not stated) | inconclusive: 7.08 µM [inhibitor, single point] | 
8 | c1ccc(OCc2nn3c(-c4ccco4)nnc3s2)cc1 |  | inactive: -3.87%
9 | COc1ccc(-n2c(SCC(=O)Nc3cccc(S(N)(=O)=O)c3)nc3ccccc3c2=O)cc1OC | inconclusive: 0.708 µM [inhibitor, single point] | 
10 | O=C(Nc1ccc(N2CCN(Cc3ccccc3)CC2)cc1)c1ccccc1[N+](=O)[O-] |  | inactive: -4.61%
11 | COc1ccc(Cl)cc1NC(=O)CN(C)C(=O)c1ccc(C)s1 |  | inactive: 0.985%
12 | O=C(C=C1SCCS1)/C=C/c1ccco1 | inconclusive: 28.2 µM [inhibitor, single point] | 
13 | CCC(CC)N1CCN(C(=O)c2cccc(Cl)c2)CC1 |  | inactive: 0.499%
14 | COc1ccc(NC(=O)CN(C)C(=O)Cc2ccc(-c3ccccc3)cc2)cc1 |  | inactive: -4.06%
15 | COc1ccc(-c2nsc(SCC(=O)Nc3ccc4c(c3)OCO4)n2)cc1 |  | inactive: -4.72%
16 | Oc1ccc(NC(=S)N=Nc2c(O)[nH]c3ccccc23)cc1 | inconclusive: 14.1 µM [inhibitor, partial curve] | 
17 | O=C1c2cccc3cc([N+](=O)[O-])cc(c23)C(=O)N1/N=C/c1ccc(O)cc1O | inconclusive: 31.6 µM [inhibitor, single point] | 
18 | COc1ccc(NC(=S)NC(=NS(=O)(=O)c2ccc(Cl)cc2)c2ccccc2)cc1 |  | inactive: -8.87%
19 | O=C(Nc1ccc(N2CCOCC2)c(S(=O)(=O)Nc2ccc(Cl)cc2)c1)c1ccc(=O)[nH]n1 | inconclusive: 20 µM [inhibitor, single point] | 
20 | CC(=O)N1N=C(c2cccc([N+](=O)[O-])c2)OC1c1ccc(Br)cc1 (configuration not stated) | inconclusive: 25.1 µM [inhibitor, single point] | 
21 | Cc1ccccc1NC(=O)CN1C(=O)S/C(=C\c2ccc(-c3cc(C(=O)O)ccc3C)o2)C1=O | inconclusive: 31.6 µM [inhibitor, single point] | 
22 | Cc1ccc(/C=N/Nc2ccc(C(=O)O)cc2)s1 | inconclusive: 39.8 µM [inhibitor, single point] | 
23 | O=C1S/C(=C\c2ccc(O)c([N+](=O)[O-])c2)C(=O)N1Cc1cccc([N+](=O)[O-])c1 | inconclusive: 6.31 µM [inhibitor, partial curve] | 

Row | Structure (SMILES) | Potency | activity, negative = inhibition
24 | CCN(CC)c1ccc(SS(=O)(=O)O)cc1 | inconclusive: 35.5 µM [inhibitor, partial curve] and inconclusive: 22.4 µM [inhibitor, single point] | 
25 | COc1ccc(NC(=O)CSc2nc3ccccc3c(=O)n2Cc2cccs2)c(OC)c1 | inconclusive: 25.1 µM [inhibitor, single point] | 
26 | Cc1ccc(/C=N/N2CCN(Cc3ccccc3)CC2)s1 | inconclusive: 35.5 µM [inhibitor, single point] | 
27 | CC1(C)C(=O)Nc2ccccc2N1C(=O)COc1ccccc1C#N | inconclusive: 25.1 µM [inhibitor, single point] | 
28 | CC1CCCCN1CCCNC(=O)C1CCN(c2nc3ccccc3o2)CC1 (configuration not stated) | inconclusive: 28.2 µM [inhibitor, single point] | 
29 | O=C(NCC1CCCO1)C(=O)N/N=C/c1cc(Cl)ccc1O (configuration not stated) | inconclusive: 8.91 µM [inhibitor, partial curve] | 
30 | C/C(=N\Nc1nc2ccccc2s1)c1ccc(Br)s1 |  | inactive: -1.54%
31 | O=C(O)/C=C/c1nc(-c2ccccc2)n2ccccc12 | active: 17.8 µM | 
32 | CN1CCN(CCCN2c3ccccc3Sc3ccc(Cl)cc32)CC1 | inconclusive: 39.8 µM [inhibitor, single point] | 
33 | CCOC(=O)c1c(N)sc(C(=O)N2CCOCC2)c1C | inconclusive: 7.08 µM [inhibitor, single point] | 
34 | COC(=O)c1cc(-c2ccccc2)sc1NC(=O)c1cc(C)on1 | inconclusive: 6.31 µM [inhibitor, single point] | 
35 | CCN(C[C@H]1N[C@@](C)(C(=O)OC)[C@H]2C(=O)N(C)C(=O)[C@@H]12)C(=O)COc1ccccc1 |  | inactive: 7.17%
36 | COc1ccc(/C=C/C2=CC(C)(C)NC(=S)N2)c(OC)c1 | inconclusive: 20 µM [inhibitor, partial curve] | 
37 | Nc1nc(N)nc(-c2ccccn2)n1 | inconclusive: 35.5 µM [inhibitor, single point] | 
38 | CCN1C(=O)/C(=C2\C=Cc3ccccc3N2CC)SC1=S | inconclusive: 3.98 µM [inhibitor, full curve] | 
39 | Cc1ccccc1OCC(=O)OCC(=O)Nc1ncc(Cl)c(C)c1Cl | inconclusive: 28.2 µM [inhibitor, single point] | 
40 | O=c1c2cc(O)c(O)cc2oc2cc(O)c(C3OC(CO)C(O)C(O)C3O)c(O)c12 (configuration not stated) | active: 3.16 µM | 
41 | Nc1ccccc1Nc1cc(-c2ccccc2)nn1-c1cccc(Cl)c1 | inconclusive: 4.47 µM [inhibitor, single point] | 
42 | CC1=C(/C=N/Nc2ccc([N+](=O)[O-])cc2[N+](=O)[O-])C(C)(C)CCC1 | inconclusive: 2.82 µM [inhibitor, partial curve] | 
43 | CCOC(=O)c1sc2nc3c(SCC(=O)O)cc(C(=O)c4ccccc4O)cn3c(=O)c2c1C | inconclusive: 6.31 µM [inhibitor, single point] | 
44 | CCCCN(CC(=O)NC(C)(C)C)C(=O)C(=O)Nc1ccc2c(c1)OCCO2 | inconclusive: 12.6 µM [inhibitor, partial curve, poor fit] | 
45 | O=c1c2ccc([N+](=O)[O-])cc2ncn1CCOc1cccc(Br)c1 | inconclusive: 12.6 µM [inhibitor, partial curve] | 
46 | Cc1ccc(C[C@@H](NS(=O)(=O)c2ccc(C(=O)O)cc2)C(=O)O)cc1 |  | inactive: 4.82%

Row | Structure (SMILES) | Potency | activity, negative = inhibition
47 | COc1cc(/C=N/Nc2nc3ccccc3[nH]2)cc(OC)c1O |  | inactive: -5.94%
48 | COc1ccc(-n2c(Cc3cccn3C)nnc2SCC(=O)N2CCCC2)cc1 |  | inactive: -1.45%
49 | O=S(=O)(c1cccs1)N1CCN(c2ccccn2)CC1 | inconclusive: 6.31 µM [inhibitor, single point] | 
50 | CCN1C(=O)C(CC(=O)Nc2c(C)cccc2C)SC1=Nc1ccc(S(N)(=O)=O)cc1 (configuration not stated) | inconclusive: 22.4 µM [inhibitor, partial curve] | 
51 | CC(=O)Nc1cc(NC(C)=O)cc(C(=O)OCC(=O)c2ccc3c(c2)OCO3)c1 | inconclusive: 25.1 µM [inhibitor, single point] | 
52 | Cc1[nH]c2ccccc2c1CCNC(=O)c1c(N)no[n+]1[O-] | inconclusive: 5.62 µM [inhibitor, partial curve, poor fit] | 
53 | Cc1cc[n+](-c2[nH]c(=O)sc2/C=N/N=C(\[O-])c2ccccc2)cc1 | inconclusive: 28.2 µM [inhibitor, partial curve] | 
54 | CC1CCN(c2oc(Cc3cccc4ccccc34)nc2C#N)CC1 | inconclusive: 14.1 µM [inhibitor, partial curve] | 
55 | CC(C)(C)NC(=O)C[C@H]1C[C@H](C(=O)N2CCCCC2)[C@@]2(C)c3[nH]c4ccc(Cl)cc4c3CCN2C1=O | inconclusive: 31.6 µM [inhibitor, single point] | 
56 | Cc1cc(NC(=O)CS(=O)(=O)c2ccc(F)cc2)no1 |  | inactive: -11%
57 | O=C(CNC(=O)c1ccc2ccccc2c1)Nc1ncccc1O | inconclusive: 39.8 µM [inhibitor, single point] | 
58 | O=C(O)CCN1CCc2ccccc21 | inconclusive: 35.5 µM [inhibitor, single point] | 
59 | O=[N+]([O-])c1cccc(N/N=C/c2cccc(O)c2O)c1 | inconclusive: 39.8 µM [inhibitor, single point] | 
60 | Cc1cccc(-n2c(Cc3cc(=O)[nH]c(=O)[nH]3)nnc2SC(C)C)c1 | inconclusive: 8.91 µM [inhibitor, single point] | 
61 | CCOC(=O)c1ccccc1NC1c2ccccc2C(=O)N1C1CCN(C(=O)OCC)CC1 (configuration not stated) | inconclusive: 11.2 µM [inhibitor, partial curve] | 
62 | Nc1nc(-c2ccccn2)nc(N)c1Cc1ccc(Cl)cc1Cl | active: 3.55 µM | 
63 | CCC(C)C1C(C#N)=C(N)OC2=C1C(=O)CC(C)(C)C2 (configuration not stated) | inconclusive: 3.55 µM [inhibitor, full curve, poor fit] | 
64 | CCC(c1nnc(SCC(=O)Nc2ccc(C(=O)Nc3ccccc3OC)cc2)o1)N(C)C (configuration not stated) | inconclusive: 7.08 µM [inhibitor, single point] | 
65 | CCOC(=O)c1c(/N=C/c2cc(C)ccc2O)sc2c1CCN(C)C2 | inconclusive: 39.8 µM [inhibitor, single point] | 
66 | O=C1C=C(NCc2ccccc2)c2ccccc2C1=O | active: 22.4 µM | 
67 | c1cnc2ccc(C(c3nnnn3C3CCCC3)N3CCSCC3)cc2c1 (configuration not stated) | inconclusive: 1.41 µM [inhibitor, full curve] | 
